Measurements as given in PubChem BioAssay (NCI).
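Dose response: 5 concentrations. Exposure: 48 h. Format: 96-well plates. Endpoint: linear interpolation; highest concentration if not reached. GI50 = concentration required for 50% inhibition of growth. TGI denotes the concentration required for complete inhibition of growth.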

What follows are compounds tested on NCI-H322M lung (assay: NCI-60 cell line screen, 48 h).
For COc1ccc(C(=O)COC(=O)[C@H](C[Se][Se]C[C@H](NC(=O)c2ccc(Br)cc2F)C(=O)OCC(=O)c2ccc(OC)cc2)NC(=O)c2ccc(Br)cc2F)cc1, the GI50 was 0.332 µM and the TGI was 2.32 µM. For COC(=O)C(C(=O)C(=O)Nc1nc(=S)[nH][nH]1)c1csc(-n2nc(-c3ccccc3)cc2-c2ccccc2)n1 (centres undefined), the TGI was over 100 µM. For CCc1n[nH]c(=O)n1/N=C/c1ccc(C)cc1, the TGI was over 100 µM. C=CC(C1=CC(=O)C(OC)=CC1=O)c1ccccc1 (centres undefined) gave a TGI of 31.8 µM. For CC(=O)Nc1cc2c3c(c1)CCCN3CCC2, the TGI was over 100 µM. Work on CC1=C/C(=N\O)C(C(O)(C(F)(F)F)C(F)(F)F)C(C)(C)C1 (centres undefined) yielded a TGI of over 10 µM. O=[N+]([O-])c1ccc(Sc2ncnc3nc[nH]c23)c2nonc12 was tested, and the GI50 was 13.8 µM and the TGI was over 100 µM.
